PubChem BioAssay AID540317 (National Center for Advancing Translational Sciences (NCATS), 2011)
Hit rate of the full screen: of about 390,000 compounds, about 2,200 (0.56%) were called active. Inconclusive means that the source gave no clear call. Such entries were picked first, then a sample of the others. Calls come from the whole dose curve; as a rule, active = well fitted inhibition curve with a large enough effect; inconclusive = small, poorly fitted or top-dose-only effect; inactive = no such curve, though single readings can be large or run the other way. Potencies beside an inconclusive call are fits to weak or partial responses and may not hold up.
Note: nearly all actives have a fitted effect of over 70% in size.
Potency is the fitted concentration of half-maximal effect; tags give direction and shape of the fitted curve.

Each compound was assayed against Chromobox protein homolog 1 (Homo sapiens) (UniProt P83916) (assay: HTS for Inhibitors of HP1-beta Chromodomain Interactions with Methylated Histone Tails). Settings: AlphaScreen HP1-beta / biotin-H3K9me3 peptide binding; series mostly up to 114 µM.
UniProt P83916, sequence (P83916 whole entry, looked up): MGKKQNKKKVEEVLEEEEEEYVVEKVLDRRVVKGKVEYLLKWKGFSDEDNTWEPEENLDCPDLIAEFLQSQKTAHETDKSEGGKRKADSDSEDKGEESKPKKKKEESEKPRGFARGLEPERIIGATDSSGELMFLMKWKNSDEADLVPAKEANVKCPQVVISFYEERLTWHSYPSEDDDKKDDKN
Outline: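 Compound inhibition of the preformed complex between 50 nM HP1-beta and 50 nM biotinylated H3K9me3 peptide was read by AlphaScreen. Buffer was PBS pH 7.4 with 0.01% Tween-20. Incubations ran 30 min at room temperature, with 10 ug/mL donor/acceptor beads.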
With `Cc1[nH]n(-c2ccccc2)c(=O)c1/C=N/N(c1ccccc1)c1ccccc1` the Potency was inconclusive: 17.8 µM [inhibitor, full curve].
`Cc1cc(C(=O)CSc2nnnn2-c2ccc(O)cc2)c(C)n1C` was tested, and the Potency was inconclusive: 25.1 µM [inhibitor, full curve].
For `Cc1cc(C)c2cc(C(O)c3nnnn3Cc3ccccc3)c(=O)[nH]c2c1` (centres undefined), the Potency was “inactive”.
With `S=c1cnc2ccccc2[nH]1` the Potency was inconclusive: 25.1 µM [inhibitor, partial curve].
In the case of `S=C1Cc2ccccc2C(c2ccc(Cl)cc2)N1` (centres undefined), the Potency is reported as inconclusive: 22.4 µM [inhibitor, full curve].
With `CCOC(=O)c1cc2c(C)n(-c3ccc(OCC)cc3)c(C)c2ccc1=O` the Potency was inconclusive: 25.1 µM [inhibitor, partial curve, poor fit].
`COc1ccc(OCCNc2cc(N3CCCCC3)ccc2[N+](=O)[O-])cc1` was tested, and the Potency was inconclusive: 10 µM [inhibitor, full curve].
With `COc1ccc(C(=O)OCC(=O)c2cc(OC)ccc2OC)c(OC)c1` the Potency was “inactive”.
For `COc1ccc(-c2nc(-c3ccccc3)c(-c3cc([N+](=O)[O-])ccc3C)[nH]2)cc1O`, the Potency was inconclusive: 17.8 µM [inhibitor, full curve].
`CCOC(=O)c1ccc(/[N+]([O-])=C/c2ccccc2)cc1` was tested, and the Potency was inconclusive: 17.8 µM [inhibitor, full curve].
In the case of `COc1ccc(Cn2c(C(=O)O)c(CNCCc3cccs3)c3ccc(C)cc32)cc1`, the Potency is reported as “inactive”.
`O=C1C(NS(=O)(=O)c2ccccc2)=C(N2CCN(c3ccc(F)cc3)CC2)C(=O)c2ccccc21` was tested, and the Potency was active: 10 µM.
`Cc1oc(-c2cc(Cl)cc(Cl)c2)cc1C(=O)NCCc1ccccc1` was tested, and the Potency was inconclusive: 22.4 µM [inhibitor, single point].
With `CSc1ccccc1NC(=O)c1ccccc1N(C)S(C)(=O)=O` the Potency was “inactive”.
`COc1cc2ncc(C(=O)c3ccccc3)c(N3CCN(Cc4ccccc4)CC3)c2cc1OC` was tested, and the Potency was inconclusive: 20 µM [inhibitor, full curve].
With `Cc1nc2ccccc2c2c(N)c3ccccc3n12` the Potency was inconclusive: 56.2 µM [inhibitor, partial curve, poor fit].
For `CCCn1c(SCCN2CCOCC2)nc2c1c(=O)n(C)c(=O)n2C`, the Potency was inconclusive: 35.5 µM [inhibitor, single point].
In the case of `CCCC(=O)N(c1ccc2oc(C)c(C(C)=O)c2c1)S(=O)(=O)c1ccc(C(=O)O)cc1`, the Potency is reported as “inactive”.
In the case of `CCN(CC)S(=O)(=O)c1ccc(OC)c(NC(=O)c2cc(=O)[nH]c3ccccc23)c1`, the Potency is reported as “inactive”.
